Experimental data from paper PMC5397843.
No constants are given. Whether binding was seen depends on the method and setting. In cells and extracts the contact can be indirect. Some results given as binding are weak or reduced against the parent protein; the word gives no strength. Sequences can lack the tags named with a protein.

Amino acid sequences for entries named in this document (tags omitted).
UniProt P40337: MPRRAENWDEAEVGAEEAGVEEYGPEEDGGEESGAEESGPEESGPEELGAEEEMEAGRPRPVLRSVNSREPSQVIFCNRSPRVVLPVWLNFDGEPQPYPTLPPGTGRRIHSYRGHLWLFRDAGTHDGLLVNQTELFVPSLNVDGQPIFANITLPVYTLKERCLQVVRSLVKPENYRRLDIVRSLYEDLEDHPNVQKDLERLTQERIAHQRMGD

Target: HA-tagged pVHL30 (human) (UniProt P40337)
Assay: co-IP; HEK293T transiently transfected with HA-pVHL30 and FLAG-CDKN1; post-nuclear supernatant (20 mM HEPES-Na pH 7.4, 150 mM NaCl, 5 mM CHAPS); anti-VHL antibody on protein A magnetic beads, 4 h at 4 °C; blot with anti-Flag

binding: binds
B1: Flag-tagged p57 (CDKN1C) (protein, UniProt P49918 1-316)
chain: MSDASLRSTSTMERLVARGTFPVLVRTSACRSLFGPVDHEELSRELQARLAELNAEDQNRWDYDFQQDMPLRGPGRLQWTEVDSDSVPAFYRETVQVGRCRLLLAPRPVAVAVAVSPPLEPAAESLDGLEEAPEQLPSVPVPAPASTPPPVPVLAPAPAPAPAPVAAPVAAPVAVAVLAPAPAPAPAPAPAPAPVAAPAPAPAPAPAPAPAPAPAPDAAPQESAEQGANQGQRGQEPLADQLHSGISGRPAAGTAAASANGAAIKKLSGPLISDFFAKRKRSAPEKSSGDVPAPCPSPSAAPGVGSVEQTPRKRLR
